# Where “and” joins values, the source holds several entries; their conditions need not be identical. Identical values can stand only once. About 31,000 (8.9%) of roughly 350,000 compounds were called active. This list was built around the results that the source calls inconclusive (neither active nor inactive); the mix of calls is not that of the screen. Calls come from the whole dose curve; as a rule, active = well fitted inhibition curve with a large enough effect; inconclusive = small, poorly fitted or top-dose-only effect; inactive = no such curve, though single readings can be large or run the other way. Where the call is inconclusive, the potency comes from a doubtful curve fit.
# Biological target: Histone-lysine N-methyltransferase EHMT2 (Homo sapiens) (UniProt Q96KQ7)
# Sequence of UniProt Q96KQ7 (Q96KQ7 whole entry, looked up): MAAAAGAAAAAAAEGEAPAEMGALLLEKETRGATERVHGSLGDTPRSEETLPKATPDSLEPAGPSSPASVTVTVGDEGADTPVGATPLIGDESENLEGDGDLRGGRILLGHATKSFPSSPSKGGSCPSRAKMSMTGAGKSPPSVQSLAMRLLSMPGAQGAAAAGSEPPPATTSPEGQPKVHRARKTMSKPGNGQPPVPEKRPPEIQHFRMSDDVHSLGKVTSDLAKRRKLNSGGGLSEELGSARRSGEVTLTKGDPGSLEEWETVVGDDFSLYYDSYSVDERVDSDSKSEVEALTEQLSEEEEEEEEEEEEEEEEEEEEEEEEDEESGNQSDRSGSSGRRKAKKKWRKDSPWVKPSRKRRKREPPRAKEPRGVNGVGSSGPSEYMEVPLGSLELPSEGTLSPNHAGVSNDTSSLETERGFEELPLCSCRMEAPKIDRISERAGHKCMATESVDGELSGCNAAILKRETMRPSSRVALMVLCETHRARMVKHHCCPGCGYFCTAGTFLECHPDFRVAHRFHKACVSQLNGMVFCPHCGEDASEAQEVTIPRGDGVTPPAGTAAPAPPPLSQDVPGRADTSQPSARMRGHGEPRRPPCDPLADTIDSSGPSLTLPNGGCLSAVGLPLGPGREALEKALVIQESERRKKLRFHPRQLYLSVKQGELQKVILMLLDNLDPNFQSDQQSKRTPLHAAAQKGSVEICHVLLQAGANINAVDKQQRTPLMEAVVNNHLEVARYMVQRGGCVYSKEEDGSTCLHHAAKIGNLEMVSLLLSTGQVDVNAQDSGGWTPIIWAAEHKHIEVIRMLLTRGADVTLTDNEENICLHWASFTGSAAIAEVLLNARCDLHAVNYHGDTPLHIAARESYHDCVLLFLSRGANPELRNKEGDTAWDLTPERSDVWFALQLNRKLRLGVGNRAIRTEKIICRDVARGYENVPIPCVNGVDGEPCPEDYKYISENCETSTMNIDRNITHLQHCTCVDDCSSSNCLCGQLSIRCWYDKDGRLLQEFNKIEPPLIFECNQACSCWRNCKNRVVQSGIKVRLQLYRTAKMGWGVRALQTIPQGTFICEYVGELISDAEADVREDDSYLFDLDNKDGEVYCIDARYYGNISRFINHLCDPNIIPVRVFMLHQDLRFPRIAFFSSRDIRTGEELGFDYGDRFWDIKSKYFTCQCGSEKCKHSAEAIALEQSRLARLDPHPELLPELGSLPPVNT
# Assay: qHTS Assay for Inhibitors of Histone Lysine Methyltransferase G9a; note: nearly all actives have a fitted effect of over 75% in size
# Settings: G9a H3K9 monomethylation, AlphaScreen, 2 h; activity, negative = inhibition: at 59 µM (top of the series) unless noted
# Method in brief: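 Using a bead-based AlphaScreen, monomethylated H3K9 product from 2 h room-temperature reactions (G9a 20 nM, peptide 500 nM, SAM 20 uM) was detected with 0.5 ug/mL rabbit anti-H3K9me1 antibody.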
# % is set by controls: 0 for no effect and ±100 for the full control effect; potency is the fitted concentration of half-maximal effect; tags give direction and shape of the fitted curve.
Structure (SMILES),Potency,"activity, negative = inhibition"
Cc1ccc(C(=O)CN2CCC(NC(=O)C3CCCCC3)CC2)cc1,"inconclusive: 3.16 µM [inhibitor, single point]",
N#Cc1nc(COc2ccccc2)oc1N1CCN(c2cccc(Cl)c2)CC1,"inconclusive: 3.55 µM [inhibitor, partial curve, poor fit]",
CCOc1ccccc1NC(=O)C(C)Sc1nc2c(c(=O)[nH]1)CCCC2 (stereo not drawn),"inconclusive: 31.6 µM [inhibitor, single point]",
CCCCC1=CC2=C(c3ccco3)C(=O)C(C)(OC(=O)c3ccc(OC)cc3)C(=O)C2=CN1CCOC (stereo not drawn),"inconclusive: 35.5 µM [inhibitor, single point]",
Cc1onc(-c2ccccc2)c1C(=O)Nc1sc2c(c1C#N)CCC(C)C2 (stereo not drawn),"inconclusive: 89.1 µM [inhibitor, single point]",
CC(C)CC1NC(=O)N(CC(=O)Nc2ccc(OCc3ccccc3)cc2)C1=O (stereo not drawn),"inconclusive: 70.8 µM [inhibitor, partial curve, poor fit]",
CC(C)(C)C1CCC(=NNC(=S)Nc2cccnc2)CC1 (stereo not drawn),active: 10 µM,
O=C(/C=C/c1cccc([N+](=O)[O-])c1)Nc1cc(C(=O)O)cc(C(=O)O)c1,"inconclusive: 89.1 µM [inhibitor, partial curve, poor fit]",
CCC(=O)N1CCc2cc(S(=O)(=O)Nc3ccccc3C)ccc21,,inactive: -3.85% [at 102 µM]
COc1cccc(OCCOc2ccccc2OC(C)C)c1,,inactive: 269% [at 102 µM]
CN1C(C(=O)Nc2ccc(F)cc2F)=CC(c2cccs2)=NS1(=O)=O,"inconclusive: 2.82 µM [inhibitor, partial curve, poor fit]",
Cc1ccc2c(=O)cc(C(=O)Nc3nnc(C)s3)oc2c1,"inconclusive: 17.8 µM [inhibitor, partial curve]",
COc1ccc2c(c1OC)C(C1c3c(cc4c(c3OC)OCO4)CCN1C)OC2=O (stereo not drawn),"inconclusive: 39.8 µM [inhibitor, single point]",
Cc1ccc(NC(=S)NNc2ncc(C(F)(F)F)cc2Cl)c(C)c1,"inconclusive: 31.6 µM [inhibitor, single point]",
O=C(NNC(=S)Nc1ccccc1)c1ccccc1[N+](=O)[O-],active: 31.6 µM,
COc1cc2nc(N(CCCN(C)C)C(=O)c3ccc(S(=O)(=O)N4CCc5ccccc54)cc3)sc2cc1OC,active: 11.2 µM,
Cc1cc(NC(=O)CN2CCC(C)CC2)no1,active: 3.55 µM,
CCOC(=O)Cc1csc(NC(=O)C(C)c2ccc([N+](=O)[O-])cc2)n1 (stereo not drawn),"inconclusive: 100 µM [inhibitor, partial curve, poor fit]",
CC(=O)Nc1sc(N/N=C\c2ccco2)nc1-c1cccs1,active: 5.62 µM,
CN1CCc2cccc3c2C1Cc1ccc(O)c(O)c1-3 (stereo not drawn),active: 1.41 µM and active: 251 nM and active: 1.89 µM,
CCCCOc1ccc(C(=S)N2CCC(C(N)=O)CC2)cc1,"inconclusive: 50.1 µM [inhibitor, partial curve, poor fit]",
Oc1oc(-c2ccccc2)nc1C=NCc1ccccc1,"inconclusive: 50.1 µM [inhibitor, partial curve]",
COC(CNS(=O)(=O)c1cc2c3c(c1)CCN3C(=O)CC2)OC,,inactive: 9.63% [at 102 µM]

Structure (SMILES),Potency,"activity, negative = inhibition"
CCn1nc(NC(=O)c2ccco2)c2cc3ccccc3nc21,active: 7.94 µM,
O=C(NCCn1cc(SCc2ccc(F)cc2)c2ccccc21)c1ccccc1F,"inconclusive: 100 µM [inhibitor, single point]",
C/C(=N\NC(=S)NC1CCCCC1)c1ccc(O)cc1,active: 35.5 µM,
COc1ccc(NC(=O)c2cn(-c3ccccc3)nc2SC)cc1,active: 39.8 µM,
CCN(CC)S(=O)(=O)c1ccc(N2CCCC2)c(NC(=O)C2=NN(c3ccccc3)C(=O)CC2)c1,,inactive: 4.13% [at 2.33 µM]
O=c1[nH]c(-c2ccccn2)nc2sc(-c3ccccc3)cc12,active: 8.91 µM,
CN(C)c1ccc(NC(=O)CN2CCC(C(=O)c3ccc(F)cc3)CC2)cc1,"inconclusive: 7.08 µM [inhibitor, single point]",
COc1ccc(NC(=O)CSc2nnc(Cc3cccn3C)n2CCc2ccccc2)c(OC)c1,,inactive: 32.4% [at 0.501 µM]
S=c1[nH]nc(CCc2nc3ccccc3[nH]2)n1-c1ccccc1,,inconclusive: -75.9% [inhibitor] [at 12.7 µM]
Cc1ccc(C)c(NC(=O)CN2C(=O)COc3ccc(S(=O)(=O)N4CCCC4)cc32)c1,,inactive: 5.58% [at 102 µM]
CC12CCC(C(=O)NNc3ccccc3)(OC1=O)C2(C)C (stereo not drawn),active: 56.2 µM,
Cn1c(SCC(=O)NNC(=S)Nc2ccccc2)nnc1-c1ccccc1,"inconclusive: 44.7 µM [inhibitor, single point]",
CCOc1cc(/C=C(/C#N)c2nc3ccccc3[nH]2)ccc1OCc1ccc(C(=O)O)o1,active: 70.8 µM,
Cc1c(NS(=O)(=O)c2cc(C(=O)NCCN(C)C)ccc2Cl)c(=O)n(-c2ccccc2)n1C,"inconclusive: 89.1 µM [inhibitor, single point]",
COc1cccc(-c2nc(CS(=O)CC(=O)NCc3ccc4c(c3)OCO4)c(C)o2)c1 (stereo not drawn),active: 50.1 µM,
CCC1(C)Cc2c(sc(NC(=O)CCC(=O)O)c2C#N)CO1 (stereo not drawn),"inconclusive: 89.1 µM [inhibitor, single point]",
CSc1ccc(S(=O)(=O)N2CCC(C(=O)N3CCc4ccccc4C3)CC2)cc1,active: 39.8 µM,
Cc1ccc(C(=O)c2sc(Nc3ccccc3)c(C#N)c2N)cc1,"inconclusive: 22.4 µM [inhibitor, single point]",
CC(C)(C)C1=CC(=O)C(=O)C(C(C)(C)C)=C1,active: 1.58 µM,
CC(=O)Nc1ccc(NC(=O)C(C)OC(=O)CCCOc2ccc(Cl)cc2C)cc1 (stereo not drawn),"inconclusive: 17.8 µM [inhibitor, partial curve, poor fit]",
C/C=C\C=C/C(=O)Nc1cccc(C2=NOC3(C2)C[C@@H](C(N)=O)N(C(=O)/C=C/CC)C3)c1 (stereo partly drawn),"inconclusive: 10 µM [inhibitor, single point]",
Cc1ccc(C(=O)Nc2nc(-c3ccccn3)cs2)o1,"inconclusive: 56.2 µM [inhibitor, partial curve]",
CCOC(=O)c1ccc(NC(=O)C2CCCN(c3ncnc4onc(C)c34)C2)cc1 (stereo not drawn),,inactive: 1.97%

Structure (SMILES),Potency,"activity, negative = inhibition"
Cc1ccc(Nc2c([N+](=O)[O-])c(=O)oc3ccccc23)cc1C,"inconclusive: 1.26 µM [inhibitor, partial curve, poor fit]",
O=C(NCc1ccco1)c1ccc(NS(=O)(=O)c2cccc([N+](=O)[O-])c2)cc1,"inconclusive: 44.7 µM [inhibitor, partial curve]",
Cc1ccc(NC(=O)Cn2c(=O)oc3cc(S(=O)(=O)N4CCCC4)ccc32)cc1F,,inactive: 6.82%
Cc1ccc(C(C[N+](=O)[O-])n2nc(C)cc2C)cc1 (stereo not drawn),"inconclusive: 1.41 µM [inhibitor, full curve, poor fit]",
Clc1ccc2c(N3CCOCC3)ccnc2c1,,inactive: 8.48% [at 102 µM]
Cc1nc(SCC(=O)N2CCOCC2)c2c(=O)n(C)c(=O)n(C)c2n1,"inconclusive: 56.2 µM [inhibitor, partial curve, poor fit]",
CCc1ccc2nc(N3CCN(C(=O)c4ccco4)CC3)sc2c1,"inconclusive: 5.01 µM [inhibitor, partial curve, poor fit]",
Cc1ccc(S(=O)(=O)NCl)cc1,"inconclusive: 3.16 µM [inhibitor, partial curve, poor fit]",
COc1ccc(CCNc2oc(COc3ccc(Cl)cc3)nc2C#N)cc1OC,"inconclusive: 3.55 µM [inhibitor, partial curve, poor fit]",
O=C(CSc1ncccc1C(=O)O)c1ccccc1F,"inconclusive: 22.4 µM [inhibitor, full curve, poor fit]",
CCOC(=O)Cc1csc(NC(=O)CSc2cc(Cl)ccc2Cl)n1,active: 22.4 µM,
Cc1ccc(NC(=O)CSCC(=O)Nc2sccc2C#N)cc1,"inconclusive: 89.1 µM [inhibitor, single point]",
O=C(Nc1ncc2c(n1)-c1ccccc1OC2)c1cccc([N+](=O)[O-])c1,"inconclusive: 79.4 µM [inhibitor, partial curve, poor fit]",
CCc1ccc(CNc2nc3nc(C)c(Cc4ccccc4)c(=O)n3[nH]2)cc1,"inconclusive: 0.891 µM [inhibitor, full curve]",
CCOc1ccc(S(=O)(=O)N2CCCCC2)cc1NC(=O)CCc1ccc(OC)cc1,"inconclusive: 31.6 µM [inhibitor, single point]",
CC(=O)Nc1ccc(NC(=O)C(C)OC(=O)C2CC(=O)N(CCc3ccccc3)C2)cc1 (stereo not drawn),"inconclusive: 50.1 µM [inhibitor, partial curve, poor fit]",
COc1ccccc1CNC(=O)C(=O)NCC(c1ccc2c(c1)OCO2)N1CCOCC1 (stereo not drawn),,inactive: 6.81%
COc1ccc(NC(=O)CSc2ccc(-c3sc(C)nc3C)nn2)cc1OC,"inconclusive: 56.2 µM [inhibitor, single point]",
COc1ccc(NC(=O)N2CCN(c3nc(-c4cccc(OC)c4)cs3)CC2)cc1,active: 12.6 µM,
CNC(=S)NNC(=O)COc1ccccc1C,active: 31.6 µM,
Cc1cccc(OCC(=O)NC(=S)Nc2ccc(S(=O)(=O)NC3CCCCC3)cc2)c1,"inconclusive: 89.1 µM [inhibitor, partial curve, poor fit]",
FC(F)(F)c1cc(CO[C@H]2CCCN[C@H]2c2ccccc2)cc(C(F)(F)F)c1,,inactive: 17% [at 12.7 µM]
